# Results reported in the supplement of paper PMC8728848.
# Some of the results follow.
# What was measured:
# Assay in all cases: glycan array binding signal (z-score within array); higher = stronger binding
# Details in all cases: glycan notation: IUPAC condensed, linker removed
# Neu5Ac(a2-8)Neu5Ac = target: Neu5Ac(a2-8)Neu5Ac
# Procedure, shortened: (§1)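 The binding signal is a Z-score computed within each array and averaged over linkers. Arrays of the same protein sequence at different concentrations or buffers were also averaged together. Data originate from 3228 arrays in the Consortium for Functional Glycomics database, kept only where the protein sequence was available.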
# [1] = target: Neu5Ac(a2-8)Neu5Ac(a2-3)Gal(b1-3)GalNAc(b1-4)[Neu5Ac(a2-3)]Gal(b1-4)Glc
# Procedure, shortened: as §1
# [2] = target: Neu5Ac(a2-8)Neu5Ac(a2-3)Gal(b1-3)GalNAc(b1-4)[Neu5Ac(a2-8)Neu5Ac(a2-3)]Gal(b1-4)Glc
# Procedure, shortened: as §1
# [3] = target: Neu5Ac(a2-8)Neu5Ac(a2-3)Gal(b1-4)Glc
# Procedure, shortened: as §1
# [4] = target: Neu5Ac(a2-8)Neu5Ac(a2-3)Gal(b1-4)GlcNAc
# Procedure, shortened: as §1
# [5] = target: Neu5Ac(a2-8)Neu5Ac(a2-3)[Gal(b1-3)GalNAc(b1-4)]Gal(b1-4)Glc
# Procedure, shortened: as §1
# [6] = target: Neu5Ac(a2-8)Neu5Ac(a2-3)[GalNAc(b1-4)]Gal(b1-4)Glc
# Procedure, shortened: as §1
# [7] = target: Neu5Ac(a2-8)Neu5Ac(a2-8)Neu5Ac
# Procedure, shortened: as §1
# [8] = target: Neu5Ac(a2-8)Neu5Ac(a2-8)Neu5Ac(a2-3)Gal(b1-4)Glc
# Procedure, shortened: as §1
# [9] = target: Neu5Ac(a2-8)Neu5Ac(a2-8)Neu5Ac(a2-3)[Gal(b1-3)GalNAc(b1-4)]Gal(b1-4)Glc
# Procedure, shortened: as §1
# [10] = target: Neu5Ac(a2-8)Neu5Ac(a2-8)Neu5Ac(a2-3)[GalNAc(b1-4)]Gal(b1-4)Glc
# Procedure, shortened: as §1
# [11] = target: Neu5Ac(a2-8)Neu5Ac(a2-8)Neu5Ac(a2-8)Neu5Ac(a2-3)[GalNAc(b1-4)]Gal(b1-4)Glc
# Procedure, shortened: as §1
# [12] = target: Neu5Ac(a2-8)Neu5Gc(a2-3)Gal(b1-4)GlcNAc
# Procedure, shortened: as §1
# [13] = target: Neu5Ac(b2-6)Gal(b1-4)GlcNAc
# Procedure, shortened: as §1
# Neu5Ac(b2-6)GalNAc = target: Neu5Ac(b2-6)GalNAc
# Procedure, shortened: as §1
# [14] = target: Neu5Ac9Ac(a2-3)Gal(b1-3)GlcNAc
# Procedure, shortened: as §1
# [15] = target: Neu5Ac9Ac(a2-3)Gal(b1-4)GlcNAc
# Procedure, shortened: as §1
# [16] = target: Neu5Ac9Ac(a2-6)Gal(b1-4)GlcNAc
# Procedure, shortened: as §1
# [17] = target: Neu5Gc(a2-3)Gal(b1-3)GlcNAc
# Procedure, shortened: as §1
# [18] = target: Neu5Gc(a2-3)Gal(b1-3)[Fuc(a1-4)]GlcNAc
# Procedure, shortened: as §1
# Neu5Gc(a2-3)Gal(b1-4)Glc = target: Neu5Gc(a2-3)Gal(b1-4)Glc
# Procedure, shortened: as §1
# [19] = target: Neu5Gc(a2-3)Gal(b1-4)GlcNAc
# Procedure, shortened: as §1
# [20] = target: Neu5Gc(a2-3)Gal(b1-4)GlcNAc(b1-3)Gal(b1-4)GlcNAc(b1-2)Man(a1-3)[Neu5Gc(a2-3)Gal(b1-4)GlcNAc(b1-3)Gal(b1-4)GlcNAc(b1-2)Man(a1-6)]Man(b1-4)GlcNAc(b1-4)GlcNAc
# Procedure, shortened: as §1
# [21] = target: Neu5Gc(a2-3)Gal(b1-4)[Fuc(a1-3)]GlcNAc
# Procedure, shortened: as §1
# [22] = target: Neu5Gc(a2-6)Gal(b1-4)GlcNAc
# Procedure, shortened: as §1
# Neu5Gc(a2-6)GalNAc = target: Neu5Gc(a2-6)GalNAc
# Procedure, shortened: as §1
# [23] = target: Neu5Gc(a2-8)Neu5Ac(a2-3)Gal(b1-4)GlcNAc
# Procedure, shortened: as §1
# [24] = target: Neu5Gc(a2-8)Neu5Gc(a2-3)Gal(b1-4)GlcNAc
# Procedure, shortened: as §1
# [25] = target: Neu5Gc(a2-8)Neu5Gc(a2-3)Gal(b1-4)GlcNAc(b1-3)Gal(b1-4)GlcNAc
# Procedure, shortened: as §1
# [26] = target: Neu5Gc(a2-8)Neu5Gc(a2-6)Gal(b1-4)GlcNAc
# Procedure, shortened: as §1
# [27] = target: Neu5Gc(b2-6)Gal(b1-4)GlcNAc
# Procedure, shortened: as §1
binder,measurement,setting,value
FGFR2-Fc (protein) MVNVTDAISSGDDEDDTDGAEDFVSENSNNKRAPYWTNTEKMEKRLHAVPAANTVKFRCPAGGNPMPTMRWLKNGKEFKQEHRIGGYKVRNQHWSLIMESVVPSDKGNYTCVVENEYGSINHTYHLDVVERSPHRPILQAGLPANASTVVGGDVEFVCKVYSDAQPHIQWIKHVEKNGSKYGPDGLPYLKVLKHSGINSSNAEVLALFNVTEADAGEYICKVSNYIGQANQSAWLTVLPKQQAPGREKEITASPDYLETRPLEQKLISEEDLAANDILDYKDDDDKV,glycan array binding signal (z-score),Neu5Ac(a2-8)Neu5Ac,-0.318
same,glycan array binding signal (z-score),[1],-0.105
same,glycan array binding signal (z-score),[2],0.38
same,glycan array binding signal (z-score),[3],-0.492
same,glycan array binding signal (z-score),[4],-0.139
same,glycan array binding signal (z-score),[5],0.18
same,glycan array binding signal (z-score),[6],0.472
same,glycan array binding signal (z-score),[7],-0.076
same,glycan array binding signal (z-score),[8],-0.306
same,glycan array binding signal (z-score),[9],0.572
same,glycan array binding signal (z-score),[10],0.201
same,glycan array binding signal (z-score),[11],0.963
same,glycan array binding signal (z-score),[12],-0.614
same,glycan array binding signal (z-score),[13],0.098
same,glycan array binding signal (z-score),Neu5Ac(b2-6)GalNAc,-0.477
same,glycan array binding signal (z-score),[14],0.103
same,glycan array binding signal (z-score),[15],-0.358
same,glycan array binding signal (z-score),[16],-0.013
same,glycan array binding signal (z-score),[17],-0.068
same,glycan array binding signal (z-score),[18],0.172
same,glycan array binding signal (z-score),Neu5Gc(a2-3)Gal(b1-4)Glc,-0.06
same,glycan array binding signal (z-score),[19],0.455
same,glycan array binding signal (z-score),[20],-0.057
same,glycan array binding signal (z-score),[21],0.278
same,glycan array binding signal (z-score),[22],0.416
same,glycan array binding signal (z-score),Neu5Gc(a2-6)GalNAc,-0.597
same,glycan array binding signal (z-score),[23],0.007
same,glycan array binding signal (z-score),[24],-0.298
same,glycan array binding signal (z-score),[25],-0.223
same,glycan array binding signal (z-score),[26],-0.4
same,glycan array binding signal (z-score),[27],0.378
